In the BET-seq Pho4 binding data (Le et al. 2018):
This is one part of the list. Values were computed here from the reads of four pooled replicates and scatter widely.

Biological target: T1, Pho4 (S. cerevisiae) (UniProt P07270)
T1 sequence: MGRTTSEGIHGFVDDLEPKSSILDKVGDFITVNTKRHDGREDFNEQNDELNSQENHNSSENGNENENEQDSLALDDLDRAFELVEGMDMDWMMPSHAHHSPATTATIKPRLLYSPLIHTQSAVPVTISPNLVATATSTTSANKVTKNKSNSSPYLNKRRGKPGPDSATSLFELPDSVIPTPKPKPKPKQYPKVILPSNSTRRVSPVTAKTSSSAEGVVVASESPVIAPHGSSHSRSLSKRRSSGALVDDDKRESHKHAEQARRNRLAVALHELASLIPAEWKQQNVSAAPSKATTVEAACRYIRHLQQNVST
Assay: relative binding free energy (BET-seq); higher = weaker binding
Details: reference: library average

Row | Sequence | relative binding free energy [kcal/mol]
1 | ATGGACACGTGACTGT | 0.15
2 | GACGTCACGTGGGGTC | 0.06
3 | TTTTACACGTGTGACT | 0.11
4 | GGTCGCACGTGTTATT | 0.02
5 | AACGTCACGTGGGCGT | 0.02
6 | CTCTTCACGTGTTATT | 0.15
7 | TTTGGCACGTGGCTGC | -0.26
8 | ATGTTCACGTGTGGAG | 0.34
9 | AGTAGCACGTGATTGA | 0
10 | GCTAGCACGTGTGGGT | -0.09
11 | GTAGCCACGTGTTGTT | 0
12 | TTGGGCACGTGGGCCG | -0.26
13 | TGAGCCACGTGAGGGT | 0.22
14 | TTGCTCACGTGTTGTT | 0.21
15 | TGCGGCACGTGTTATA | -0.09
16 | TGTTTCACGTGTAGGT | 0.27
17 | TGGATCACGTGAAGAG | 0.32
18 | CGGTCCACGTGTTGGT | 0.12
19 | AGGTGCACGTGCGTGA | -0.09
20 | ATAGACACGTGGTACG | -0.03
21 | TGAGGCACGTGGTTCC | -0.13
22 | TGCTGCACGTGGTCGG | -0.2
23 | AGGAGCACGTGCGTTG | -0.27
24 | AATGGCACGTGTCTGA | 0.01
25 | AGTGTCACGTGTAGTG | -0.02

Row | Sequence | relative binding free energy [kcal/mol]
26 | ATGTCCACGTGTGGGG | -0.03
27 | GGGGGCACGTGAGCGA | 0.18
28 | TTGGTCACGTGCCGGT | 0.06
29 | CTAGGCACGTGAAGTT | 0.01
30 | TATGACACGTGAGGCT | 0.2
31 | ATGGGCACGTGAATTG | 0.1
32 | TAGTGCACGTGCGGAG | 0.03
33 | GTAAACACGTGTGGCT | 0.07
34 | TGTGGCACGTGGCAAA | -0.21
35 | AATTTCACGTGTAAGA | 0.27
36 | GAGGGCACGTGACTGG | -0.11
37 | CGGCTCACGTGTGGGT | 0.38
38 | TTCCACACGTGGTTGT | 0.2
39 | TAGTTCACGTGCTATA | 0.12
40 | ATGGGCACGTGAAGGA | 0.27
41 | ATTTTCACGTGAGCTG | 0.39
42 | GCTTTCACGTGATGGG | 0.38
43 | TGTGCCACGTGTGCAG | -0.15
44 | AGTTACACGTGAAGAG | 0.41
45 | AGGGCCACGTGGTGAG | -0.12
46 | TTATGCACGTGTGGCG | 0.12
47 | CTGGGCACGTGGGCGC | -0.25
48 | GCTTTCACGTGGGGTG | 0.06
49 | TTCTACACGTGTAGTA | 0.18
50 | ATGACCACGTGGGGGT | -0.19

Row | Sequence | relative binding free energy [kcal/mol]
51 | TTGTTCACGTGGCATG | 0.15
52 | TCTTGCACGTGGTGCT | -0.02
53 | TCTTTCACGTGTGGCG | 0.42
54 | AATTGCACGTGACAGG | 0.27
55 | CTGGACACGTGGCGGA | 0.06
56 | ATGCTCACGTGTTTCT | 0.35
57 | GTGTTCACGTGATTAG | 0.4
58 | GTGTACACGTGAATAG | 0.43
59 | AGTCTCACGTGGTAGA | 0.34
60 | CGTAGCACGTGGACGG | 0.02
61 | CGTGTCACGTGAGCTG | 0.16
62 | ATGGGCACGTGGTCAT | -0.3
63 | GGAGTCACGTGTTGTC | 0.24
64 | GTTTGCACGTGGGCAG | -0.2
65 | GTTGTCACGTGCGATT | 0.23
66 | ATTGTCACGTGTAAAA | 0.25
67 | GGGGCCACGTGACTGT | 0.09
68 | TGTGACACGTGGGCTA | -0.11
69 | TTATGCACGTGGTTGA | -0.1
70 | TAAATCACGTGGATGT | 0.13
71 | TCGTTCACGTGTGGCT | 0.2
72 | GTGGACACGTGTCATG | 0.02
73 | GTTGCCACGTGTGTGG | 0.09
74 | ATGAGCACGTGTCGTG | -0.1
75 | ATTTTCACGTGAAAAT | 0.13

Row | Sequence | relative binding free energy [kcal/mol]
76 | GAGGGCACGTGAAGGT | 0.22
77 | TTGACCACGTGTTGTG | -0.07
78 | TGGAGCACGTGTAATA | -0.06
79 | ATTTCCACGTGGCGGT | 0.1
80 | AGTGACACGTGAAGAG | 0.11
81 | CTGGTCACGTGCAGGG | 0.18
82 | GGTTACACGTGAGTCT | 0.35
83 | AACGGCACGTGTGGGC | -0.04
84 | ATGGCCACGTGGTGGT | -0.13
85 | AGGGACACGTGTGGTG | 0.06
86 | AGGGTCACGTGCGTAT | -0.02
87 | GCGGGCACGTGTTAGG | -0.06
88 | GTGTGCACGTGCGTTT | -0.09
89 | CGAAACACGTGGGTTT | -0.07
90 | TCTAGCACGTGTGGTG | -0.07
91 | TGCCTCACGTGGCGGG | 0.1
92 | AGAGTCACGTGGTAGG | -0.06
93 | TGGATCACGTGTGATG | 0.29
94 | TAATGCACGTGGTTGT | -0.14
95 | TGATCCACGTGGGAGG | -0.11
96 | ATGGTCACGTGGGAGT | 0.03
97 | TGGATCACGTGGGGTC | 0.2
98 | TATAACACGTGTGGTA | 0.01
99 | AGCGGCACGTGTGAGC | 0.03
100 | TGGAGCACGTGATGAG | 0.1

Row | Sequence | relative binding free energy [kcal/mol]
101 | AGCTGCACGTGGAGTG | -0.04
102 | TGCGTCACGTGTGAGG | 0.04
103 | TTGTTCACGTGTCAAT | 0.3
104 | CGGGTCACGTGGCTGA | -0.01
105 | GAAAGCACGTGCGTGT | -0.09
106 | ATTTGCACGTGCTATG | -0.12
107 | TTCTCCACGTGGTTGG | -0.01
108 | TGTAGCACGTGGGTAA | -0.23
109 | GTACTCACGTGGTATT | 0.1
110 | GAGGTCACGTGAGGTA | 0.19
111 | TGGTCCACGTGAGGAG | 0.13
112 | GGGTGCACGTGATCCG | 0.12
113 | TTGGTCACGTGTTACT | 0.09
114 | ATTTCCACGTGGCGTT | 0.07
115 | TGATGCACGTGACGGT | 0.18
116 | AATTTCACGTGTGATC | 0.39
117 | TTAGTCACGTGTGAGG | 0.07
118 | AGAGTCACGTGCGTGT | 0.08
119 | AGGGGCACGTGGGACC | -0.05
120 | TGAATCACGTGAGTTC | 0.59
121 | TGAAGCACGTGGGAGC | -0.08
122 | TGGCACACGTGTCGTG | -0.02
123 | TTGATCACGTGTTCGG | 0.15
124 | TAAGGCACGTGGGGGC | -0.32
125 | TATCGCACGTGTTAAA | 0.18

Row | Sequence | relative binding free energy [kcal/mol]
126 | TTATTCACGTGGTATG | 0.1
127 | TACATCACGTGGTAGT | 0.08
128 | TTGTTCACGTGGTTGG | 0.29
129 | TTTAGCACGTGTTTAA | -0.08
130 | TGTCTCACGTGAGTAG | 0.46
131 | GGTGACACGTGAAATG | 0.47
132 | CTTTACACGTGCTTGG | 0.08
133 | GGGCGCACGTGGGCGC | -0.22
134 | TGGCTCACGTGATTGT | 0.33
135 | TTTAGCACGTGTATTT | -0.02
136 | CGGCTCACGTGTGGAG | 0.15
137 | TCTTGCACGTGATGTG | -0.04
138 | TGTGTCACGTGCAGAT | -0.08
139 | TTATTCACGTGACGTT | 0.36
140 | TTTGTCACGTGGAAAT | 0.31
141 | GGTGACACGTGCAAGG | 0.2
142 | TCTTTCACGTGTAGGT | 0.21
143 | TTTTTCACGTGTTCAT | 0.17
144 | TTCGTCACGTGGTCGA | 0.09
145 | GAATTCACGTGTAAGG | 0.35
146 | TGGTGCACGTGTATAA | 0.12
